# In PMC12136788:
# Some of the results follow.
# B1: chr4:52020705:52023956:-|three_prime_utr|ENSG00000163069|control|control|control (ssRNA)
# RNA: GGGAGUUCUACAGUCCGACGAUCGUGAUAACUCAUAAUUAUUUUAAUGGCAGAGCACUGCUGUAUCUGUUUUAUGGUCUACAUAGUUAAAAUCUUCUCAGAGAGCCUAAAUUCUAAUACAUUUUAUUAAUUUAUACUAAUCUUCAACAGAGGAUUGAGCAUCA
# B2: ENSG00000198589:be:win_4001|CDS|ENSG00000198589|bound_else_gene|NA|bound_elsewhere_windowed (ssRNA)
# RNA: GGGAGUUCUACAGUCCGACGAUCGAAGCCAUUCAACAAAGACAGUUAUGGACUUCGUGAAUAGCAGUGAUAAUGUCAUCUUUGUACACAACACAAUUCAUCUCAUCUCUCAAGUGAUGGACAAUAUGGUCAUGGCUUGUGGGGCAACAGAGGAUUGAGCAUCA
# B3: chr3:149318497:149321477:-|three_prime_utr|ENSG00000163762|control|control|control (ssRNA)
# RNA: GGGAGUUCUACAGUCCGACGAUCGACAAAAUGUUUUCCAUUAUCAAGACAUGGCCAUCUAUCUAAAUAUUAUAUCAACUGUGUAGACUUGAGGGCAAUAUUGAAAUGAUGGUGCUUUCUGCAUUUGGUGUUUAUUUGUAAAAACAACAGAGGAUUGAGCAUCA
# B4: chr2:45599705:45599806:-|CDS|ENSG00000068784|msi1|total|mutant (ssRNA)
# RNA: GGGAGUUCUACAGUCCGACGAUCCUCAUAUGUUCUCUUUGUGGUUUGACCGAACCGCUCUGUGGCUAUUGCUGAUACUGCUUCCGAAGACAGAAAAAAUAAAUUGGAUACUGUACAGACUCUGAAAACAGCCAAGACAAAACACAACAGAGGAUUGAGCAUCA
# B5: chr19:2933217:2933488:-|three_prime_utr|ENSG00000175691|control|control|control (ssRNA)
# RNA: GGGAGUUCUACAGUCCGACGAUCGACCUGGGAGAGUGUUCAACCGUAAAACCUUGUUGUAAAUGUGAGAAACGUUAUUUAUGUAGAGCAUGUAGGAAAACCUGGUAUAGCACUUAUUUUGUACCUAAAAAUUCAGAGUAGGAGCAACAGAGGAUUGAGCAUCA
# B6: chr15:88464702:88464876:-|CDS|ENSG00000259494|control|control|control (ssRNA)
# RNA: GGGAGUUCUACAGUCCGACGAUCUGAUGAAAAGAAUGACCGAACAUCCCUGAACAGGAAGCUAGACAGGAACCUUGUCCUGUUAGUCAGAGAGAAGUUUGGAGACCAGGAUGUUUGGAUACUGCCCCAGGCAGAGUGGCAGCCCAACAGAGGAUUGAGCAUCA
# B7: chr3:53865378:53865479:+|3pUTR|ENSG00000056736|unk|total|mutant (ssRNA)
# RNA: GGGAGUUCUACAGUCCGACGAUCAUUACAGGGAAAAAACGUGUGAUGAUCCUGAAGCUUACUAUGCAGCCUACAAACAGCCUCCGUAAUUAAAACAUUUUAUACCAAUAAAAUUUUCAAAUAUUGCUAACUAAUGCCGCAUUACAACAGAGGAUUGAGCAUCA
# B8: ENSG00000107863:be:win_6001|3pUTR|ENSG00000107863|bound_else_gene|NA|bound_elsewhere_windowed (ssRNA)
# RNA: GGGAGUUCUACAGUCCGACGAUCUUGCACUGUGAAAUAGCUUUACAGUGCAUUACUACAGCCAGAAGAACAUAUAUAUAUAUAUAUAUAUUUAAAAAUAUAUCGGAUAGUUGUAUACAAAUGAGCAAGGUAUUUGUUGCAACUCAACAGAGGAUUGAGCAUCA
# B9: chr6:41099391:41099486:+|3pUTR|ENSG00000001167|msi1_unk|FALSE|overlapping (ssRNA)
# RNA: GGGAGUUCUACAGUCCGACGAUCAGUGCUUAAGCUGCCAACAGUUAGAAGAUGCUAUUUAUUUGUGUCUGUAAGUUUGUACAUAGUAAUGCCAGCCUUGUUGCUGAAUUUUUUAUUUGGGGGGAGAUGACUUUGAAUUUUGUUCAACAGAGGAUUGAGCAUCA
# B10: chr5:150657389:150657496:+|3pUTR|ENSG00000171992|unk|FALSE|bound_elsewhere (ssRNA)
# RNA: GGGAGUUCUACAGUCCGACGAUCCUCUCUCUCUCUCUCACACACACACACACACACACACACACACACACACACACACACACUAGUUAGUGCCUUGGAUGAGGCGGGGCAGUGUGUAUAUGGACCCCUGGACUUGCUACCUUCCAACAGAGGAUUGAGCAUCA
# B11: chr20:11926050:11926151:+|3pUTR|ENSG00000132640|msi1|total|mutant (ssRNA)
# RNA: GGGAGUUCUACAGUCCGACGAUCAUGAAAUGGAAUGAAGGCUAAUAUGCUUGCUUUAUUUACUUUUGUAAUCUUGGAUUUUGCCGCUUUUAAAACCCGAAACCAUUGUUCUAACAAAGCAGGCAACUUUAUUCUAUAAACACACAACAGAGGAUUGAGCAUCA
# B12: chr5:113594843:113594944:+|3pUTR|ENSG00000047188|msi1|total|mutant (ssRNA)
# RNA: GGGAGUUCUACAGUCCGACGAUCCAACAUAAAAUCUUGAGAACCUUCUACUUUCUCUGGGAAAGCAUUAUACCGUGGUGCAUCCGUUCCGAAAGUCAGCUAUGAUUUUGCCUACCGUUCCCGUUAUCCGCUUUGGGGUUUUCUCAACAGAGGAUUGAGCAUCA
# B13: chr7:6023389:6023508:+|CDS|ENSG00000106305|unk|total|mutant (ssRNA)
# RNA: GGGAGUUCUACAGUCCGACGAUCGUUCUCUCUGUUUGGCCAGAAGCAUAAUGCUGUCAACGCAACCCUUACCGACCGCUGGGCCGAUAUUGCGAUUUUUCAGUUAAAAGAGGGAAGCAGUAAAGAAAAAGCCGCUGUUUUCCGCAACAGAGGAUUGAGCAUCA
# B14: chr2:20282997:20283108:-|CDS|ENSG00000055917|unk|FALSE|unique (ssRNA)
# RNA: GGGAGUUCUACAGUCCGACGAUCACUAAUCUGCAAUCUAAUUCAUUUUAUGGAAGCAGUUCUUUGACUAAUAGCUCCCAGAGUAGUUCUUUAUUUUCUCAUGGACCUGGUCAACCUGGAAGUACAUCUCUUGGCUUUGGAAGUCAACAGAGGAUUGAGCAUCA
# B15: chr13:101061967:101062118:-|CDS|ENSG00000102452|control|control|control (ssRNA)
# RNA: GGGAGUUCUACAGUCCGACGAUCCAUCCGGAAGAGCUUGCAGCUGGAGGAACUCCUGGCGAGGGAGCAGCUGGAGUACACCAUAGAGGAGGAGGUGGCCAAGCAGACCAUCCGCAUGUGGCUCAAGAAGUGCCUGAAGCGCAUCAACAGAGGAUUGAGCAUCA
# B16: ENSG00000070961:be:win_5251|3pUTR|ENSG00000070961|bound_else_gene|NA|bound_elsewhere_windowed (ssRNA)
# RNA: GGGAGUUCUACAGUCCGACGAUCUGGAUUCUUUAGCUCUCUUUUUCUUUCCUUCAUCUACCUUCUUCUCUUUUUUGCCUCUGUCUUUACCCUUUAGAAACUGGCAUGUGUUAGGGCCCAGAUUUCACCAGAUACACAAUCCUCCAACAGAGGAUUGAGCAUCA
# B17: chr16:18841627:18841728:-|CDS|ENSG00000157106|msi1|FALSE|bound_elsewhere (ssRNA)
# RNA: GGGAGUUCUACAGUCCGACGAUCUACAAUUAAUCGCCAAGAAACACCCCGGUUCCAUGCUCGACACUAUUCUGUAACACCACUAGGAACAAGAUCAGGACUAAUCCAGUGGGUAGAUGGAGCCACACCCUUAUUUGGUCUUUACAACAGAGGAUUGAGCAUCA
# B18: chr1:225491636:225491737:-|3pUTR|ENSG00000154380|msi1|FALSE|unique (ssRNA)
# RNA: GGGAGUUCUACAGUCCGACGAUCGUACUUUGAAUUCCAUAGGAAAAAGCACUCAGAAGAAAAAGUCUACAUUGGCUAGUGUUUAGAUUGAGAGUUAAUUUUCCCAUCAAGUCCAAAAGUUUCCAUCCAAGUCUAUAGAAACUGCAACAGAGGAUUGAGCAUCA
# B19: ENSG00000198589:be:win_4551|CDS|ENSG00000198589|bound_else_gene|NA|bound_elsewhere_windowed (ssRNA)
# RNA: GGGAGUUCUACAGUCCGACGAUCAGUUGUUUUCAGAGACAUAGAGGAUAGCAAACAAGCUCAAUUUUUAGCCUUGGCAGUAGUAUACUUUAUCUCUGUUCUUAUGGUCUCCAAGUACAGAGACAUUUUGGAACCCCAAAAUGACAACAGAGGAUUGAGCAUCA
# B20: chrX:141173234:141176580:-|three_prime_utr|ENSG00000182195|control|control|control (ssRNA)
# RNA: GGGAGUUCUACAGUCCGACGAUCCUUGCCCUCCGGUCCCCUUACCUACCCGCGCCCGUCUGCUCUCUCUCUUCAUUUCUCCGUAGUGCUUGUCUUUGUUCCAGGAAUAGCGCUCCAGUUACCUGCUGCUGGGGUCGGGGCUGGCAACAGAGGAUUGAGCAUCA
# B21: ENSG00000181544:stop:overlap|stop_codon|ENSG00000181544|stop_codon|NA|stop_codon (ssRNA)
# RNA: GGGAGUUCUACAGUCCGACGAUCAUACUUCAUGUGAGUGGAAUCAUAGAGUAUUUAUAUUUUUGUACCUGGCUUAUUUUACUUAGCAUAAUGUCCUUGAGGUUCAUUCGUGUCAUAGCUUGUGACACUAUUUCCUUCUGUUUACAACAGAGGAUUGAGCAUCA
# B22: ENSG00000090612:stop:overlap|stop_codon|ENSG00000090612|stop_codon|NA|stop_codon (ssRNA)
# RNA: GGGAGUUCUACAGUCCGACGAUCUGCUCACCACAACGUCUGCUUCCCGAGUUCAAGUGGUUCUCUUGCCUCAGCCUCCUGAGUAGCUGGGAUUACAGGUCCCACCUCUCCAAGAACGAAACAGUUCAUGGGAUAGGAUCAGAACAACAGAGGAUUGAGCAUCA
# Molecular target: MSI1 full-length (mouse, UniProt Q61474 1-362)
# Sequence of UniProt Q61474 (Q61474 whole entry): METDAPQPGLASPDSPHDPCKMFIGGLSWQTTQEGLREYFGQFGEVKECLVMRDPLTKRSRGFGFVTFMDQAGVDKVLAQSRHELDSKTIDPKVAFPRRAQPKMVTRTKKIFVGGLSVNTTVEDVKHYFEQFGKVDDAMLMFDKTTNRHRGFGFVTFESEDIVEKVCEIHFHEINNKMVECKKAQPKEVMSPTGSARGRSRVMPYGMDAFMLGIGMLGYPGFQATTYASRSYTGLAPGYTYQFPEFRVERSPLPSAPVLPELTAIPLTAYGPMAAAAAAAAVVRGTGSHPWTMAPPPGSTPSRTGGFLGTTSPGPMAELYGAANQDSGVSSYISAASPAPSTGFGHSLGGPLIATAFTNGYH
# Test: nsRBNS (natural sequence RNA bind-n-seq); RBNS binding buffer (assumed for nsRBNS): 25 mM Tris pH 7.5, 150 mM KCl, 3 mM MgCl2, 0.01% Triton X-100, 500 ug/ml BSA, 20 U/ml SUPERase-In, 4 C; UNK is unkempt and MSI1 is Musashi-1; names of the RNAs are library labels; protein concentration not given here; high values mean tight binding
row,Binder,binding signal [enrichment R]
1,B1,10.2
2,B2,0.256
3,B3,0.474
4,B4,0.284
5,B5,3.17
6,B6,0.466
7,B7,0.347
8,B8,0.732
9,B9,6.94
10,B10,2.33
11,B11,0.37
12,B12,0.394
13,B13,0.367
14,B14,0.97
15,B15,0.618
16,B16,1.28
17,B17,0.768
18,B18,1.05
19,B19,1.67
20,B20,1.07
21,B21,1.66
22,B22,0.562
